{
  "source": "PubChem BioAssay AID2147",
  "about": "(National Center for Advancing Translational Sciences (NCATS), 2009)",
  "note": "Where “and” joins values, the source holds several entries; their conditions need not be identical. Equal entries are not always repeated. Among all 230,000 compounds or so, about 3,600 (1.6%) were called active. Inconclusive means that the source gave no clear call. Such entries were picked first, then a sample of the others. Calls follow the shape of the dose curve; as a rule, active = well fitted inhibition curve with a large enough effect (not every such curve was filed as active); inconclusive = small, poorly fitted or top-dose-only effect, or another doubt; inactive = no such curve, though single readings can be large or run the other way. A potency beside an inconclusive call is a rough fit, not a confirmed value. Also: nearly all actives have a fitted effect of over 50% in size.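 For activity change, negative = inhibition in this document: 0% = wells with enzyme and -100% = buffer wells without enzyme.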 Potency is read from the fitted curve at half-maximal effect; tags tell the direction and shape of the fitted curve.",
  "data": [
    {"biological_target": "Lysine-specific demethylase 4E (Homo sapiens) (UniProt B2RXH2)", "sequence (B2RXH2 whole entry, looked up, the tested form may be a part)": "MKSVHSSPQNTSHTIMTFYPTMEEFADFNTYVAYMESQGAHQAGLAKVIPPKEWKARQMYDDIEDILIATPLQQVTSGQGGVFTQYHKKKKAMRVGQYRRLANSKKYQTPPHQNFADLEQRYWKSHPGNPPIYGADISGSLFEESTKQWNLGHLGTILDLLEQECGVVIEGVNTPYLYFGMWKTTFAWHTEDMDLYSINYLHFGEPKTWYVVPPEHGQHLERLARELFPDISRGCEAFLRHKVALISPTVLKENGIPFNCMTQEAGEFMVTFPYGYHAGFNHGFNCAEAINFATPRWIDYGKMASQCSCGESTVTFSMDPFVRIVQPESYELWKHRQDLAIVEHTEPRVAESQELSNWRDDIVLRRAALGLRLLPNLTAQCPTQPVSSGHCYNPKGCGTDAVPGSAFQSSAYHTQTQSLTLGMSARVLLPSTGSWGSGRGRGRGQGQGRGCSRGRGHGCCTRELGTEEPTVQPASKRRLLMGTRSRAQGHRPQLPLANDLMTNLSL", "test": "qHTS Assay for Inhibitors of Human Jumonji Domain Containing 2E (JMJD2E)", "settings": "JMJD2E catalytic domain, FDH-coupled NADH fluorescence (FDH is formaldehyde dehydrogenase); series mostly up to 57.1 µM; activity change, negative = inhibition: at the top concentration", "values": [
      {"smiles": "COc1cccc(/C=N/NC(=O)C(=O)NCc2cccnc2)c1O", "Potency": "active: 10 µM"},
      {"smiles": "COc1ccc2c(COC(=O)CCS(=O)(=O)c3ccccc3)cc(=O)oc2c1", "Potency": "inconclusive: 35.5 µM [inhibitor, partial curve]"},
      {"smiles": "O=C(NCCCN1CCCC1=O)c1nnc(Cc2c(F)cccc2Cl)o1", "Potency": "inconclusive: 35.5 µM [inhibitor, single point]"},
      {"smiles": "CC(=O)Nc1ccc(S(=O)(=O)N(C2=NCC(C)S2)c2ccccc2)cc1", "note": "(centres undefined)", "activity change, negative = inhibition": "inactive: 0.738%"},
      {"smiles": "COc1ccc(-n2c3c(cc(C(=O)NCc4ccco4)c2=O)C(=O)CC(C)(C)C3)cc1", "Potency": "inconclusive: 31.6 µM [inhibitor, partial curve]"},
      {"smiles": "CCO/C=C1/C(=O)N(Cc2ccccc2)C(=O)c2ccccc21", "Potency": "inconclusive: 7.08 µM [inhibitor, partial curve]"},
      {"smiles": "CN(Cc1ccon1)C(=O)CC1C(=O)NCCN1CC1CCCCC1", "note": "(centres undefined)", "Potency": "inconclusive: 35.5 µM [inhibitor, single point]"},
      {"smiles": "Cc1ccc(/C=N/NC(=O)NC2CCCCC2)o1", "activity change, negative = inhibition": "inactive: 2.52%"},
      {"smiles": "CCCS(=O)(=O)N1CCN(c2cc3c(cc2[N+](=O)[O-])n(C)c(=O)n3C)CC1", "activity change, negative = inhibition": "inactive: 5.95%"},
      {"smiles": "Cc1ccc2nc(NCCO)nc(-c3ccccc3)c2c1", "Potency": "inconclusive: 28.2 µM [inhibitor, partial curve]"},
      {"smiles": "COCCn1c(=N)c(C(=O)NCc2ccco2)cc2c(=O)n3cc(C)ccc3nc21", "Potency": "inconclusive: 31.6 µM [inhibitor, single point]"},
      {"smiles": "O=C(Nc1ccc(Cl)cc1)N1CCCC(Cn2cccc2)C1", "note": "(centres undefined)", "activity change, negative = inhibition": "inactive: 4.54%"},
      {"smiles": "Cc1cc(=O)oc2cc(OCC3CC(c4ccc(Br)cc4)=NO3)ccc12", "note": "(centres undefined)", "Potency": "inconclusive: 35.5 µM [inhibitor, single point]"},
      {"smiles": "COc1ccccc1Oc1coc2c(CN(C)C)c(O)ccc2c1=O", "Potency": "inconclusive: 31.6 µM [inhibitor, partial curve]"},
      {"smiles": "CN1C(=O)C2(NC(=O)c3ccccc3N2C)c2ccccc21", "note": "(centres undefined)", "activity change, negative = inhibition": "inactive: -9.65%"},
      {"smiles": "COc1cccc(C2=CC(c3ccc(OC)c(OC)c3)NC(=S)N2)c1", "note": "(centres undefined)", "Potency": "inconclusive: 39.8 µM [inhibitor, single point]"},
      {"smiles": "O=S(=O)(Nc1ncnc2sc3c(c12)CCC3)c1ccc2ccccc2c1", "Potency": "inconclusive: 28.2 µM [inhibitor, partial curve]"},
      {"smiles": "NS(=O)(=O)c1ccc(NCc2c(F)cccc2Cl)cc1", "activity change, negative = inhibition": "inactive: -1.07%"},
      {"smiles": "CCCN(CCC)c1nc2ccccc2nc1C(C#N)C(=O)OCCOC", "note": "(centres undefined)", "Potency": "inconclusive: 31.6 µM [inhibitor, single point]"},
      {"smiles": "COc1ccc(S(=O)(=O)N2CCCC2C(=O)Nc2nnc(-c3cccnc3)s2)cc1", "note": "(centres undefined)", "Potency": "inconclusive: 25.1 µM [inhibitor, partial curve]"},
      {"smiles": "COc1cc(-c2nc3ccccn3c2/N=C/c2cccc(F)c2)ccc1O", "Potency": "inconclusive: 28.2 µM [inhibitor, partial curve]"},
      {"smiles": "CCN(CC)S(=O)(=O)c1ccc2c(c1)N(CC(=O)N(CCc1ccncc1)C(C)C)C(=O)CO2", "Potency": "inconclusive: 39.8 µM [inhibitor, single point]"},
      {"smiles": "COc1ccccc1/C=C\\C(=O)NCC(=O)N/N=C/c1ccc(O)cc1O", "Potency": "inconclusive: 28.2 µM [inhibitor, partial curve]"},
      {"smiles": "COC(CN(C(=O)CCl)C(C(=O)NC1CCCC(C)C1C)c1ccc(C)cc1)OC", "note": "(centres undefined)", "Potency": "inconclusive: 39.8 µM [inhibitor, single point]"},
      {"smiles": "CCOc1ccc2oc(-c3ccccc3)c(C(=O)N(C)C)c2c1", "Potency": "inconclusive: 31.6 µM [inhibitor, partial curve]"},
      {"smiles": "COc1ccccc1NS(=O)(=O)c1cc(NC(=O)/C=C/c2cccs2)ccc1N1CCOCC1", "activity change, negative = inhibition": "inactive: -27.3%"},
      {"smiles": "COc1ccc(NC(=O)CN(C)CC(=O)Nc2ccc(N3CCOCC3)cc2)c([N+](=O)[O-])c1", "activity change, negative = inhibition": "inactive: -8.97%"},
      {"smiles": "c1ccc(C2CC(c3cccs3)=NN2c2ccccc2)cc1", "note": "(centres undefined)", "Potency": "inconclusive: 3.55 µM [inhibitor, full curve]"},
      {"smiles": "COC(=O)CCC(=O)OC1(C)C(=O)C=C2C=C(C3CC3)N(CCc3c[nH]c4ccccc34)C=C2C1=O", "note": "(centres undefined)", "Potency": "inconclusive: 17.8 µM [inhibitor, partial curve] and inconclusive: 4.47 µM [inhibitor, single point]"},
      {"smiles": "COc1ccc(/C=C/C(=O)NCC(=O)N/N=C/c2cc(Br)ccc2OCc2ccccc2)cc1", "Potency": "inconclusive: 39.8 µM [inhibitor, single point]"},
      {"smiles": "O=C(CSc1nc2ccccc2[nH]1)N=Nc1c(O)[nH]c2ccccc12", "activity change, negative = inhibition": "inactive: 7.48%"},
      {"smiles": "Cc1ccc(/C=N\\NC(=O)C2COc3cc4ccccc4cc3O2)o1", "note": "(centres undefined)", "Potency": "inconclusive: 39.8 µM [inhibitor, single point]"},
      {"smiles": "COc1ccc2nc(SCc3ccccc3)nc(C)c2c1", "Potency": "inconclusive: 31.6 µM [inhibitor, partial curve]"},
      {"smiles": "O=Cc1cn(-c2ccccc2)nc1-c1cc2ccccc2oc1=O", "Potency": "inconclusive: 17.8 µM [inhibitor, partial curve]"},
      {"smiles": "CC(C)OC(=O)c1cc(C(=O)c2cc(F)ccc2O)coc1=N", "Potency": "inconclusive: 28.2 µM [inhibitor, single point]"},
      {"smiles": "COc1cc(CNCCc2c[nH]c3ccccc23)cc(Cl)c1OCC(N)=O", "activity change, negative = inhibition": "inactive: -30%"},
      {"smiles": "O=C(CSc1ccc2nnc(CCNS(=O)(=O)c3ccccc3)n2n1)Nc1nc2ccccc2s1", "Potency": "inconclusive: 20 µM [inhibitor, single point]"},
      {"smiles": "Cc1cccc2cc(C#N)c(N3CCC(O)CC3)nc12", "Potency": "inconclusive: 31.6 µM [inhibitor, single point]"},
      {"smiles": "CCOC(=O)c1sc2nc(C3CC3)cc(-c3ccc(OC)cc3)c2c1N", "Potency": "inconclusive: 1.26 µM [inhibitor, single point]"},
      {"smiles": "C=C(CO)C1Cc2c(ccc3c(=O)c4c(oc23)COc2cc(OC)c(OC)cc2-4)O1", "note": "(centres undefined)", "activity change, negative = inhibition": "inactive: -22.5%"},
      {"smiles": "CN(CCO)S(=O)(=O)c1ccc2c(c1)C(=NO)c1cc(S(=O)(=O)N(C)CCO)ccc1-2", "Potency": "inconclusive: 28.2 µM [inhibitor, partial curve]"},
      {"smiles": "CCOC(=O)c1c(Cc2ccccc2)c[nH]c1C", "activity change, negative = inhibition": "inactive: 8.2%"},
      {"smiles": "CC(=O)Nc1sc(NC(=O)c2ccc([N+](=O)[O-])cc2)nc1-c1cccs1", "activity change, negative = inhibition": "inactive: -4.61%"},
      {"smiles": "O=C(Nc1ccc(N2CCN(C(=O)c3ccccc3)CC2)cc1)c1ccc(Br)o1", "activity change, negative = inhibition": "inactive: 5.22%"},
      {"smiles": "CSc1ccccc1-c1nnc(-c2ccc(Cl)cc2Cl)o1", "Potency": "inconclusive: 31.6 µM [inhibitor, single point]"},
      {"smiles": "O=c1n(Cc2ccccc2Cl)nc2n1-c1ccccc1SC2", "activity change, negative = inhibition": "inactive: -7.23%"},
      {"smiles": "CN(C(=O)c1cccnc1)c1nnc(-c2cccnc2)s1", "Potency": "inconclusive: 31.6 µM [inhibitor, single point]"},
      {"smiles": "COc1cccc(N2CCN(c3ncnc4c3[nH]c3ccc(F)cc34)CC2C)c1", "note": "(centres undefined)", "Potency": "inconclusive: 39.8 µM [inhibitor, single point]"},
      {"smiles": "CCOC(=O)NC1(Nc2ccc(Cl)cn2)Oc2ccccc2O1", "Potency": "active: 25.1 µM"},
      {"smiles": "Cn1cc(P(=S)(N2CCOCC2)N2CCOCC2)cc1P(=O)(N1CCOCC1)N1CCOCC1", "activity change, negative = inhibition": "inactive: -12.8%"},
      {"smiles": "COC(=O)Cc1c(C)c2ccc(OCC(C)=O)c(C)c2oc1=O", "Potency": "inconclusive: 31.6 µM [inhibitor, partial curve]"},
      {"smiles": "COc1ccc(CCNC(=O)Cn2c(=O)n(CC3CCCO3)c(=O)c3cc(OC)c(OC)cc32)cc1OC", "note": "(centres undefined)", "Potency": "inconclusive: 22.4 µM [inhibitor, single point]"},
      {"smiles": "Cc1cc(/C=C(/C#N)c2nc3ccccc3[nH]2)c(C)n1-c1cc(C(=O)O)cc(C(=O)O)c1", "Potency": "active: 22.4 µM"},
      {"smiles": "COc1ccccc1CC(=O)N1CCN(c2ccccn2)CC1", "Potency": "inconclusive: 25.1 µM [inhibitor, partial curve]"},
      {"smiles": "Fc1ccc(CSc2nnc(-c3cc4c(s3)-c3ccccc3CC4)o2)cc1", "Potency": "inconclusive: 25.1 µM [inhibitor, partial curve]"},
      {"smiles": "O=c1[nH]c2ccccc2c(O)c1-c1ccccc1", "activity change, negative = inhibition": "inactive: 1.24%"},
      {"smiles": "N#Cc1c(NC(=O)c2ccc(Cn3cc(Br)cn3)o2)sc2c1CCCCC2", "Potency": "inconclusive: 35.5 µM [inhibitor, single point]"},
      {"smiles": "O=C(NCC1CCCO1)c1sc2cc(Cl)ccc2c1Cl", "note": "(centres undefined)", "activity change, negative = inhibition": "inactive: -5.46%"},
      {"smiles": "CC(C)(C)c1ccc(OCC(=O)Nc2ccc(-c3nc4cccnc4o3)cc2)cc1", "Potency": "inconclusive: 3.16 µM [inhibitor, partial curve]"},
      {"smiles": "Cc1onc(-c2ccccc2)c1-c1nc2cc(Cl)ccc2c(=O)o1", "Potency": "inconclusive: 39.8 µM [inhibitor, single point]"},
      {"smiles": "O=[N+]([O-])C(/C=C(/Cl)[N+](=O)[O-])=C(N1CCCCC1)N1CCCCC1", "activity change, negative = inhibition": "inactive: -22.7%"},
      {"smiles": "C/C(=N\\NC(=S)Nc1cc(S(=O)(=O)N2CCOCC2)ccc1Cl)c1ccc(N2CCOCC2)cc1", "Potency": "inconclusive: 25.1 µM [inhibitor, partial curve]"},
      {"smiles": "c1ccc(-c2nnc(-c3ccccn3)nc2NC2CCCCC2)cc1", "Potency": "inconclusive: 28.2 µM [inhibitor, single point]"},
      {"smiles": "COc1ccc(C2Nc3ccccc3C(=O)N2c2ccccc2)cc1COc1ccccn1", "note": "(centres undefined)", "Potency": "inconclusive: 28.2 µM [inhibitor, partial curve]"},
      {"smiles": "Cc1cc(Cl)n2ncc(-c3ccccc3)c2n1", "Potency": "inconclusive: 39.8 µM [inhibitor, single point]"},
      {"smiles": "COc1ccc(/C=C/C=C2\\N=C(SC)SC2=O)cc1", "activity change, negative = inhibition": "inactive: -0.333%"},
      {"smiles": "CCC(c1nnnn1C1CCCC1)N(Cc1cccs1)Cc1cc2cccc(C)c2[nH]c1=O", "note": "(centres undefined)", "Potency": "inconclusive: 39.8 µM [inhibitor, single point]"},
      {"smiles": "Cc1cc(C(=O)Nc2nnc(-c3ccccc3)s2)no1", "Potency": "inconclusive: 39.8 µM [inhibitor, single point]"},
      {"smiles": "Cc1ccc(N2C(=O)CC(Cc3cccc(C)c3)C2=O)cc1", "note": "(centres undefined)", "activity change, negative = inhibition": "inactive: -2%"}
    ]}
  ]
}
